# Data: article PMC4336329 (PLoS ONE, 2015)
# Among all 310,000 compounds or so, about 2,200 (0.71%) showed an effect of 50% or more. Effects have a minus sign here. This is one part of the list.
# Target: human ether-à-go-go-related gene (hERG) potassium channel (human, UniProt Q12809)
# Assay: primary screen, population patch clamp on CHO cells stably expressing hERG
# Sequence of human ether-à-go-go-related gene (hERG) potassium channel (Q12809 whole entry, looked up): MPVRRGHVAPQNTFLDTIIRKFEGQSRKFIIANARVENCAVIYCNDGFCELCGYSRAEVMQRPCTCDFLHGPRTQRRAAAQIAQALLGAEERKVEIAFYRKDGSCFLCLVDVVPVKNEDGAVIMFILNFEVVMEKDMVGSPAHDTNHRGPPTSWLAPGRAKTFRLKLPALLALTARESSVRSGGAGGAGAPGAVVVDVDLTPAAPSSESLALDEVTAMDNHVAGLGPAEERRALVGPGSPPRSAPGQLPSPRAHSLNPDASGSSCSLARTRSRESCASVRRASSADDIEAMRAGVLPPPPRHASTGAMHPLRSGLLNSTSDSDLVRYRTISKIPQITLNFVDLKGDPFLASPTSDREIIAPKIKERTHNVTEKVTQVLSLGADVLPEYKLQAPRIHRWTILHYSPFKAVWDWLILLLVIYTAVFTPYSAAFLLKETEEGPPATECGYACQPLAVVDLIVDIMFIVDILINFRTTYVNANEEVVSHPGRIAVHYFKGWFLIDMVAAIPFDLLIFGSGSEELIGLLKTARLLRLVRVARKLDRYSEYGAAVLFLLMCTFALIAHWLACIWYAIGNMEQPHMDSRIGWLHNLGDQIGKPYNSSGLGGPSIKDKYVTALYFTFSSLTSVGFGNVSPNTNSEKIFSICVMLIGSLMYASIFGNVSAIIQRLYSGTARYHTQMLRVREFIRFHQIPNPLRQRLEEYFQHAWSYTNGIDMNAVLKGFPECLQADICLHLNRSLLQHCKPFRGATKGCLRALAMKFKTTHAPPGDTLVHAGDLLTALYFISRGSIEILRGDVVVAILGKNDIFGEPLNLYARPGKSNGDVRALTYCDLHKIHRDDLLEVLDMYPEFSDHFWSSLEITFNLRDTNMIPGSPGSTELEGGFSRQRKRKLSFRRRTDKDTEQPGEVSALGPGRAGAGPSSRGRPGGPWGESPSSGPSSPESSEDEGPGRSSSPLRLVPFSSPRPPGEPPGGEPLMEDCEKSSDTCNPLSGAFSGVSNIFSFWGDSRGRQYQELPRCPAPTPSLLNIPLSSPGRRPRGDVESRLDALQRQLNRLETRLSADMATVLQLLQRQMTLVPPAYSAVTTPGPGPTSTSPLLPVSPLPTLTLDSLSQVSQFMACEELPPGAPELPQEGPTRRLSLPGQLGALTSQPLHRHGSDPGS
row,Structure (SMILES),"hERG current change (%, negative = inhibition) at 1uM [%]"
1,COc1ccc2oc(C(=O)OCC(=O)Nc3cc(S(=O)(=O)N4CCOCC4)ccc3C)c(C)c2c1,5.19
2,O=C(c1ccc(F)cc1)C1CCN(C(=O)N2CCOCC2)CC1,4.9
3,COc1ccc(CC(=O)N/N=C(\C)c2ccc(Br)s2)cc1,14.1
4,O=C(O)c1ccccc1-c1nc2cc(Cl)ccc2c(=O)n1O,16
5,CC(C)OC(=O)NCCOC(=O)Nc1cccc(Cl)c1,18.8
6,CCC(=O)Nc1ccc(NC(=O)c2ccc3ccccc3c2)cc1,11.9
7,O=C(c1ccccc1)c1c(O)cc(-c2ccccc2)oc1=O,15.6
8,CCOC(=O)COn1c(=O)c(-c2ccc(C)cc2)[n+]([O-])c2ccccc21,24.3
9,CCN1CCN(C(c2ccccc2)c2nnnn2Cc2ccc(OC)cc2)CC1.Cl (stereo not drawn),11.3
10,CCCn1c(SCC(=O)O)nc2ccccc21,8.03
11,O=C(c1ccccc1NS(=O)(=O)c1ccccc1)N1CCCCCC1,14
12,COc1cc2cc3c(N)c(C(=O)NCc4ccco4)sc3nc2cc1OC,4.74
13,Cc1cc(N2CCOCC2)nc2ccc(NC(=O)CCC(=O)N3CCN(c4ccccc4)CC3)cc12,6.18
14,COc1ccc(C(=O)N2CCCC(N3CCN(c4ccccc4OC)CC3)C2)c(OC)n1 (stereo not drawn),16.6
15,CCOC(=O)COc1nc2c(c(-c3ccco3)c1C#N)CCc1ccccc1-2,8.03
16,O=C(CCN1C(=O)C2CC=CCC2C1=O)Nc1nccs1 (stereo not drawn),3.75
17,COc1ccc(OC)c(-n2c(CN3CCC(C(N)=O)CC3)nc3ccccc3c2=O)c1,7.22
18,O=C1N/C(=N/N=C/c2ccccc2)SC1(c1ccccc1)c1ccccc1,9.93
19,COc1ccc(/C=C/C(=O)NC(=S)NNC(=O)c2cc(OC)c(OC)c(OC)c2)cc1OC,1.35
20,CC1CCN(S(=O)(=O)c2cccc(C(=O)N3CCN(c4ccc(F)cc4)CC3)c2)CC1,-14
21,Cc1ccc(C)c(NC2=C(Cl)C(=O)OC2OC(=O)c2ccco2)c1 (stereo not drawn),11.7
22,O=C(O)c1ccc(/C=N/NC(=S)NCCN2CCOCC2)cc1,6.73
23,CC(C)(C)c1ccc(C2C3=C(CCCC3=O)NC3=C2C(=O)c2ccccc23)cc1 (stereo not drawn),12.1
24,O=C(O)c1ccc(NC(=S)NC2CCCCC2)cc1,12.2
